# In paper PMC10668032:
# This is one part of the list. At the low end of the ranking, values are background and their order means little.
# Biological target: SIX1-Q177R homeodomain (UniProt Q15475)
# Assay: universal protein binding microarray
# Details: Universal all-10-mer PBM (8x60K, AMADID 030236), 300 nM GST-tagged protein, Alexa Fluor 488 anti-GST; buffer, salt, pH and temperature not stated; high values mean tight binding; most listed sequences are background and not binding sites; double strand, one strand shown
row,Sequence,binding signal [E-score]
1,CCGCCGTC,-0.159
2,GGAGAGAA,-0.0497
3,AACTAGGC,-0.15
4,CGCGTAAA,-0.0811
5,GCTACTAC,0.00988
6,AACAAGGG,0.177
7,CAGGTTGA,0.0602
8,CGCATATA,0.004
9,GAGTGACC,-0.0399
10,GGCTGAGA,-0.092
11,AGGGACTC,-0.0544
12,CGAACAGC,0.0192
13,ACACACCT,0.386
14,TAACAACA,-0.00137
15,GGCCCATA,-0.308
16,GTTATAAA,-0.0757
17,GATCGCAA,-0.106
18,GGAAAACC,-0.162
19,ATGTGTCC,0.0873
20,AGTTTCTC,-0.129
21,CGGGGCTA,-0.0526
22,GAAATCAC,-0.119

row,Sequence,binding signal [E-score]
1,AGTAACGG,-0.0894
2,CAAATCAC,-0.159
3,GCACCTAC,0.0592
4,TGCCCACA,-0.0296
5,ACAGCTCG,-0.231
6,CCTCTCTC,0.0406
7,TACACTCA,0.402
8,GTGCAGGA,0.0261
9,ACAAGCCG,-0.021
10,CTATTGAA,-0.117
11,ACCTGACC,0.127
12,AACAGGTC,-0.168
13,AAACTCAT,-0.131
14,CACGTGTC,0.398
15,GCAATACA,0.104
16,CATTGTAG,-0.0744
17,ACCAGATG,0.0175
18,GCTAACCA,-0.085
19,AGTATAGA,-0.159
20,AATGATAA,-0.134
21,CGGGGCGA,0.088
22,GGCTTGCA,-0.0695

row,Sequence,binding signal [E-score]
1,CAGGGTAA,0.21
2,AGAACTCA,-0.217
3,CAGATCGA,-0.0533
4,CGAAAATC,0.0717
5,ACGTTCCA,-0.0354
6,CCGAATGC,-0.128
7,CCTATTCG,-0.042
8,CAGCGGGG,0.194
9,AACCGGAC,0.0553
10,AGCGAGCG,-0.0222
11,CCAGAGGC,-0.179
12,GTACAAAC,-0.0177
13,ACACACTG,0.248
14,CCAGACAA,-0.0652
15,AACACCGC,0.476
16,ACGAGCAC,0.226
17,AGAGGCCT,-0.231
18,CTGTTAAC,0.0494
19,AACTAGAC,0.0897
20,AGGTGCTC,0.158
21,GAGATATC,-0.0283
22,AATACCGA,-0.128

row,Sequence,binding signal [E-score]
1,AAAACTCG,0.00573
2,CTAGGGAA,0.0589
3,AAGCTCCG,-0.199
4,AATTCAGC,-0.197
5,AATCACGG,-0.0798
6,CTACCCTA,0.0623
7,CAATGATG,-0.231
8,ACTTCCCT,-0.171
9,AACAAGTT,-0.218
10,AAAGACCG,-0.269
11,CATAGAAG,-0.0123
12,GTTAGTTA,-0.0375
13,CCAGGGAG,0.0724
14,CGTACACG,0.405
15,AGCGTGAC,0.0818
16,TGCTACAA,0.0102
17,GAAGCTTC,-0.345
18,GAGGCCAC,-0.158
19,AGGGGGAT,0.23
20,GGGATGGA,-0.00959
